Target: human Kv1.3 (Homo sapiens, UniProt P22001)
Test: cell-based or functional assay

Sequence of UniProt P22001 (P22001 whole entry): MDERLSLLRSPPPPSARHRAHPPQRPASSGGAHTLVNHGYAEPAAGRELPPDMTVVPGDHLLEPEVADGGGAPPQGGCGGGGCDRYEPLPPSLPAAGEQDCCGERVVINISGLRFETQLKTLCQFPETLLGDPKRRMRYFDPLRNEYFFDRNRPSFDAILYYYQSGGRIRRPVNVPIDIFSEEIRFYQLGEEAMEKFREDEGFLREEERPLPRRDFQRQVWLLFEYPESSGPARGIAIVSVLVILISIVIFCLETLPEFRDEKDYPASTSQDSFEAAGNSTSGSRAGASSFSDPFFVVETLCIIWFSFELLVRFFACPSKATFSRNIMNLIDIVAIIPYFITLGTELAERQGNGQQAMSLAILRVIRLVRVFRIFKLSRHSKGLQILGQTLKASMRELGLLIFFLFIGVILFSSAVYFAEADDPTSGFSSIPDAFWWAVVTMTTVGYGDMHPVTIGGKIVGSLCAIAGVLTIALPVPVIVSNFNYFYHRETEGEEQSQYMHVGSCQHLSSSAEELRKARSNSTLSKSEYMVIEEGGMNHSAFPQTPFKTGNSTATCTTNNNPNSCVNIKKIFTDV

IC50, IFNγ production, T-cell activation assay [nM]	IC50, IFNγ production, T-cell activation assay, with 2.5 µM HSA [nM]	Binder
0.32	0.67	A019400072 (bispecific antibody) DVQLVESGGGVVQPGGSLRLSCSASGLLFSRNSAGWYRQAPGKQREFVARIRQGGSINYADSVKGRFTISRDNSKNTVYLQMNSLRPEDTALYYCSSWREGFYEYWGQGTLVTVSSGGGGSGGGGSGGGGSGGGGSGGGGSGGGGSGGGGSEVQLVESGGGVVQPGGSLRLSCSASGLLFSRNSAGWYRQAPGKQREFVARIRQGGSINYADSVKGRFTISRDNSKNTVYLQMNSLRPEDTALYYCSSWREGFYEYWGQGTLVTVSSGGGGSGGGGSGGGGSGGGGSGGGGSGGGGSGGGGS[about 120 residues omitted]
0.096	0.41	A019400071 (bispecific antibody) DVQLVESGGGVVQPGGSLRLSCSASGLLFSRNSAGWYRQAPGKQREFVARIRQGGSINYADSVKGRFTISRDNSKNTVYLQMNSLRPEDTALYYCSGWRTGFYEYWGQGTLVTVSSGGGGSGGGGSGGGGSGGGGSGGGGSGGGGSGGGGSEVQLVESGGGVVQPGGSLRLSCSASGLLFSRNSAGWYRQAPGKQREFVARIRQGGSINYADSVKGRFTISRDNSKNTVYLQMNSLRPEDTALYYCSGWRTGFYEYWGQGTLVTVSSGGGGSGGGGSGGGGSGGGGSGGGGSGGGGSGGGGS[about 120 residues omitted]
0.16	0.57	A019400074 (bispecific antibody) DVQLVESGGGVVQPGGSLRLSCSASGLLFSRNSAGWYRQAPGKQREFVARIRAGGSINYADSVKGRFTISRDNSKNTVYLQMNSLRPEDTALYYCSSWREGFYEYWGQGTLVTVSSGGGGSGGGGSGGGGSGGGGSGGGGSGGGGSGGGGSEVQLVESGGGVVQPGGSLRLSCSASGLLFSRNSAGWYRQAPGKQREFVARIRAGGSINYADSVKGRFTISRDNSKNTVYLQMNSLRPEDTALYYCSSWREGFYEYWGQGTLVTVSSGGGGSGGGGSGGGGSGGGGSGGGGSGGGGSGGGGS[about 120 residues omitted]
0.14	0.46	A019400073 (bispecific antibody) DVQLVESGGGVVQPGGSLRLSCSASGLLFSRNSAGWYRQAPGKQREFVARIRAGGSINYADSVKGRFTISRDNSKNTVYLQMNSLRPEDTALYYCSGWRTGFYEYWGQGTLVTVSSGGGGSGGGGSGGGGSGGGGSGGGGSGGGGSGGGGSEVQLVESGGGVVQPGGSLRLSCSASGLLFSRNSAGWYRQAPGKQREFVARIRAGGSINYADSVKGRFTISRDNSKNTVYLQMNSLRPEDTALYYCSGWRTGFYEYWGQGTLVTVSSGGGGSGGGGSGGGGSGGGGSGGGGSGGGGSGGGGS[about 120 residues omitted]

Source: patent US20170137512A1 (Ablynx, published 2017)
